These are yes or no findings as the source states them, for the method shown. For part of these data: In cells and extracts the contact can be indirect. Some binding calls cover weakened binding; strength is not graded here. Sequences can lack the tags named with a protein.
What was measured:
[1] = molecular target: EDA·A1THD (residues 233–391) R276C (human, UniProt Q92838 233-391, R276C); assay: SPR; WT and mutant EDA·A1THD immobilised on CM5 chips, EDAR_(CRDS) serially diluted and injected; Biacore 8K; 10 mM HEPES pH 7.5, 150 mM NaCl, 3 mM EDTA, 25 °C; steady-state analysis at equilibrium; both purified
[2] = molecular target: EDA·A1THD (residues 233–391) D265G (human) (UniProt Q92838); assay: as above
[3] = molecular target: EDA·A1THD (residues 233–391) A259E (human) (UniProt Q92838); assay: as above
[4] = molecular target: EDA·A1 TNF homology domain (EDA·A1THD, residues 233–391), wild type (human) (UniProt Q92838); assay: crystal structure; EDA·A1THD and EDAR_(CRDS) mixed at a molar ratio of 1:1; crystals in 25% PEG-6000, 0.1 M BICINE pH 9.0, 4 °C; 2.8 Å; both purified
[5] = molecular target: EDA·A1 TNF homology domain (EDA·A1THD, residues 233–391), wild type (human) (UniProt Q92838); assay: SEC; gel filtration of purified EDA·A1THD and EDAR_(CRDS); comigration; both purified
[6] = molecular target: human soluble Flag-EDA·A1THD (amino acids 233–391) R276C (human) (UniProt Q92838); assay: pull-down; supernatant of HEK293T cells with Flag-EDA·A1THD (WT or mutant) incubated with purified EDAR_(CRDS)-MBP at 4 °C, then Flag beads; 25 mM Tris pH 7.5, 150 mM NaCl, 0.5% NP40; immunoblot with anti-MBP and anti-Flag; human and mouse proteins; only the binder purified
[7] = molecular target: human soluble Flag-EDA·A1THD (amino acids 233–391) A259E (human) (UniProt Q92838); assay: as above
[8] = molecular target: human soluble Flag-EDA·A1THD (amino acids 233–391) D265G (human) (UniProt Q92838); assay: as above
[9] = molecular target: human soluble Flag-EDA·A1THD (amino acids 233–391), wild type (human) (UniProt Q92838); assay: as above

Sequences of proteins named here, by UniProt entry; tags and fusion partners are left off. A change or cut given only in a name is not applied to a line headed by its entry. A line that says so, or that is headed by a name, gives the form on record, which may keep a tag or linker. Residues count along the entry.
EDA·A1 TNF homology domain (EDA·A1THD, residues 233–391), wild type (Q92838, residues 233-391): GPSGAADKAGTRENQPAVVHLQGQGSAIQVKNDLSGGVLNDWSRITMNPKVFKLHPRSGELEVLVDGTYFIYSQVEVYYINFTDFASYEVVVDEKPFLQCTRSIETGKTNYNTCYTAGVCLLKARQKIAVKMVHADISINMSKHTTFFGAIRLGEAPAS
EDA·A1THD (residues 233–391) R276C (Q92838, form named): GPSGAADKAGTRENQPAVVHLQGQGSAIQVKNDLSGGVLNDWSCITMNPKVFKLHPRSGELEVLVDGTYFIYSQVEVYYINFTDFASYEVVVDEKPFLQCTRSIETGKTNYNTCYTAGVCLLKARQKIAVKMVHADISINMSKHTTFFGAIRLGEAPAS
EDA·A1THD (residues 233–391) D265G (Q92838, form named): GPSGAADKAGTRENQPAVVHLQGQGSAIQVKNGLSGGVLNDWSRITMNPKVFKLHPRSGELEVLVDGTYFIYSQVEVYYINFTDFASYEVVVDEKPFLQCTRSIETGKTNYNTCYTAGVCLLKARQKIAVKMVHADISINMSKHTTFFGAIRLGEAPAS
EDA·A1THD (residues 233–391) A259E (Q92838, form named): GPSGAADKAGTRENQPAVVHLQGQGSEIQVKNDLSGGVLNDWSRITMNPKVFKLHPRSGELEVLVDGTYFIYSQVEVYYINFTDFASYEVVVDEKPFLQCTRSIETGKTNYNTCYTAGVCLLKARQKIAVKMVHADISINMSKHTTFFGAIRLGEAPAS
human soluble Flag-EDA·A1THD (amino acids 233–391) R276C (Q92838, form named): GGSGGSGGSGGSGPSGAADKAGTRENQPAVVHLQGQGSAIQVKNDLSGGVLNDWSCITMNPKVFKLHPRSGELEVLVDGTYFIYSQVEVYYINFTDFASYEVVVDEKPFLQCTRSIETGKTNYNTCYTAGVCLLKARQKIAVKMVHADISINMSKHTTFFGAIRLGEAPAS
human soluble Flag-EDA·A1THD (amino acids 233–391) A259E (Q92838, form named): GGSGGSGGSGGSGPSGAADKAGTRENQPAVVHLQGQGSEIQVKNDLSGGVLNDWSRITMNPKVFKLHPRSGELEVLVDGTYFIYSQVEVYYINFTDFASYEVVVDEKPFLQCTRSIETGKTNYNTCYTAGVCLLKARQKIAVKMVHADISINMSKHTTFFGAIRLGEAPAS
human soluble Flag-EDA·A1THD (amino acids 233–391) D265G (Q92838, form named): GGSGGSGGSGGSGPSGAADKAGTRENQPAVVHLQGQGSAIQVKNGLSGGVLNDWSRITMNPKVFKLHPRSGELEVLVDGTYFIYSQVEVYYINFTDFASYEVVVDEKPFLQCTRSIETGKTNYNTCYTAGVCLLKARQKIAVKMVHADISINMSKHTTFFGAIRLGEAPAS
human soluble Flag-EDA·A1THD (amino acids 233–391), wild type (Q92838, form named): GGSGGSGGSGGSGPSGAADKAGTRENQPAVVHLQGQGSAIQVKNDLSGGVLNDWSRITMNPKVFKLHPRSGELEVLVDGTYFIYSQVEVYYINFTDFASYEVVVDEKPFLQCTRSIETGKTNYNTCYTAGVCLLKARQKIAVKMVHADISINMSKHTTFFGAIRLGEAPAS

Row | Binder | binding [1] | binding [2] | binding [3] | binding [4] | binding [5] | binding [6] | binding [7] | binding [8] | binding [9]
1 | EDAR cysteine-rich domains (EDAR_(CRDS), residues 30–150), MBP tag removed (domain or fragment, human, EDAR (ectodysplasin A receptor), human, cysteine-rich domains CRD1-CRD3, residues 30-150; Construct: EDAR signal peptide (residues 1-28), MBP, 3C site, linker, EDAR 30-150; That the linker stays on the protein after 3C cleavage follows only from the order in which the methods list the elements; also called ectodomains of EDAR; source: Hi5 insect cells (baculovirus), secreted, purified (amylose, …)) GGSGGSGGSGGSNCGENEYYNQTTGLCQECPPCGPGEEPYLSCGYGTKDEDYGCVPCPAEKFSKGGYQICRRHKDCEGFFRATVLTPGDMENDAECGPCLPGYYMLENRPRNIYGMVCYSCLLAPPNTKECVG | binds | no binding | no binding | binds | binds | – | – | – | –
2 | human EDAR_(CRDS)-MBP (residues 30–150 with MBP tag) (domain or fragment, UniProt Q9UNE0 30-150) GGSGGSGGSGGSNCGENEYYNQTTGLCQECPPCGPGEEPYLSCGYGTKDEDYGCVPCPAEKFSKGGYQICRRHKDCEGFFRATVLTPGDMENDAECGPCLPGYYMLENRPRNIYGMVCYSCLLAPPNTKECVG | – | – | – | – | – | binds | no binding | no binding | binds
